Results reported in PubChem BioAssay AID1159614 (National Center for Advancing Translational Sciences (NCATS), 2016).
Screen size: about 45,000 compounds; about 65 (0.1%) were called active. Calls come from the whole dose curve; as a rule, active = well fitted activation curve with a large enough effect; inconclusive = small, poorly fitted or top-dose-only effect; inactive = no such curve, though single readings can be large or run the other way. The list shows a part of the results.

Biological target: Galactocerebrosidase (Homo sapiens) (UniProt P54803)
Sequence of UniProt P54803 (P54803 whole entry, looked up): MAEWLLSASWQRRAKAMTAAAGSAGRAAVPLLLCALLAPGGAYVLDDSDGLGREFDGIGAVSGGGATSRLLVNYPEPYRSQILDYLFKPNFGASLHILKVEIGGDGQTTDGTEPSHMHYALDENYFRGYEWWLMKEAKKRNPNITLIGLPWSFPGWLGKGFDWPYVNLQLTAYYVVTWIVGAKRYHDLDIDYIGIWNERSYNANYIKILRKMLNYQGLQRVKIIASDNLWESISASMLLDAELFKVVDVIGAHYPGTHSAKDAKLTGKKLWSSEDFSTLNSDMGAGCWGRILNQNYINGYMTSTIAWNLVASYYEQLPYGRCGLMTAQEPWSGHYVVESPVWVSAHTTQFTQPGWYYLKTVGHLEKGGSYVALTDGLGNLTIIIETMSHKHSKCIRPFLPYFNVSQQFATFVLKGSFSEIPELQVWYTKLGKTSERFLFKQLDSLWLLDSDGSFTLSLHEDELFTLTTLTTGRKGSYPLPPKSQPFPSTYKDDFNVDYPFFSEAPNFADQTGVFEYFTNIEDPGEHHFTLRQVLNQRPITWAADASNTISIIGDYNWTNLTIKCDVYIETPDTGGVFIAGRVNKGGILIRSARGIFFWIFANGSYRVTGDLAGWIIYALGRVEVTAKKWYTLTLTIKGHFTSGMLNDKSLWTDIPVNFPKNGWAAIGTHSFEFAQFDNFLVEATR
Assay: A Novel Cell-Based Assay to Identify Small Molecules for B -Galactocerebrosidase; note: 0% is about no effect; nearly all actives have a fitted effect of over 65% in size
Settings: 145M-Twi-hGALC-G270D cells, HMU-beta-Gal fluorescence, 48 h; series mostly up to 57.5 µM; activation: at the top concentration
Procedure, shortened: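 qHTS, 1536-well; 145M-Twi-hGALC-G270D cells (WT line also made) in DMEM/F12 + 10% FBS; compound incubation on live cells; HMU-β-gal 0.1 mM final, pH 5.2, NaTC; carbonate stop; fluorescence increase = enhanced residual activity.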

Compound	activation
CCOc1ccc(-c2nnc(SCC(=O)NCc3ccccc3)nc2-c2ccc(OCC)c(OC)c2)cc1OC	inactive: 0.234%
CCOc1ccccc1NC(=O)N1CCN(Cc2nc3ccc(C)cc3o2)CC1	inactive: -6.52%
Cc1ccc(C)c(N2CCN(S(=O)(=O)c3c(C)nc4sccn4c3=O)CC2)c1	inactive: -7.96%
CCOC(=O)c1[nH]c(C)c(CCC(=O)NCc2ccccc2C)c1C	inactive: -0.525%
CCn1cc(S(=O)(=O)c2ccc(C)cc2)c(=O)c2cc(F)c(N3CCCCCC3)cc21	inactive: -9.56%
Cn1nc(-c2ccccc2F)c2cc(C(=O)N3CCN(c4ccc(F)cc4)CC3)sc21	inactive: -8.84%
CCC(C)NC(=O)Cn1c(=O)n(Cc2ccc(C(=O)NCc3ccccc3OC)cc2)c(=O)c2ccccc21 (configuration not stated)	inactive: -15.8%
Cc1nn(C(=O)c2cccc(F)c2)c(C)c1S(=O)(=O)N1CCCCCC1	inactive: -8.75%
Cc1ccc(NC(=O)CSc2ncnc3c2sc2ccccc23)cc1C	inactive: -17.6%
CCCN1CCN(CCCNC(=O)Cn2c(-c3cccs3)cc3ccccc32)CC1	inactive: -4.93%
CCN(CC)c1nn2c(=O)c(C(=O)NCc3cccc(C)c3)cnc2s1	inactive: -0.902%
COc1ccc(Cn2c(SCc3ccc(C(=O)NCCc4ccccc4)cc3)nc3cccnc32)cc1	inactive: -19.3%
Cn1c(=O)n(C/C=C/c2ccccc2)c(=O)c2c1nc1n2CCN1c1ccc(Cl)cc1	inactive: -5.77%
Cc1cc(C)cc(NS(=O)(=O)c2ccc3[nH]cc(C(=O)N4CCCCCC4)c(=O)c3c2)c1	inactive: 1.82%
COc1ccc(OC)c(Nc2ncnc3c2cnn3-c2ccc(C)cc2)c1	inactive: -8.65%
COc1ccc(-c2noc(CN3CCN(c4cccc(Cl)c4)CC3)n2)cc1	inactive: -9.47%
Cc1cccc(N2CCN(S(=O)(=O)c3ccc(F)c(C(=O)Nc4ccc(C(C)C)cc4)c3)CC2)c1C	inactive: -8.37%
Cc1ccc(C)c(NC(=O)CSc2nc(=O)n(Cc3ccccn3)c3c2CCC3)c1	inactive: -12.8%
COCCn1c(C)cc(O)c(C(c2ccc(C)cc2)N2CCCCC2)c1=O (configuration not stated)	inactive: -1.3%
CC(=O)N1c2ccccc2C(=O)C1N1CCN(c2cccc(C(F)(F)F)c2)CC1 (configuration not stated)	inactive: -8.53%
CC(=O)N1CCc2cc(Br)cc(S(=O)(=O)N3CCN(c4cc(C)ccc4C)CC3)c21	inactive: -4.29%
CCOc1ccc(CC(=O)NC2CC(=O)N(c3ccc(C)c(C)c3)C2)cc1 (configuration not stated)	inactive: -6.37%
COc1ccccc1N(CC(=O)Nc1ccc(C)c(Cl)c1)S(=O)(=O)c1ccc(C)cc1	inactive: -7.64%
C#CC(C)(CC)NC(=O)c1cc2c(n(-c3ccc(Cl)cc3)c1=O)CC(C)(C)CC2=O (configuration not stated)	inactive: -0.094%
CCN(CC)c1ccc(NC(=O)c2cc(S(=O)(=O)N3CCc4ccccc43)cn2C)c(C)c1	inactive: -13.7%

Compound	activation
CCN1CCN(c2c(S(=O)(=O)c3ccccc3)cnc3ccc(Cl)cc23)CC1	inactive: -13.7%
Cn1cc(-c2cc3n(n2)CCC(=O)N3CC(=O)O)c2ccccc21	inactive: -9.56%
OCc1nc2ccccc2n1Cc1c(F)cccc1Cl	inactive: 1.82%
Cc1ccccc1OCC(=O)N(Cc1ccc(N(C)C)cc1)CC1CCCO1 (configuration not stated)	inactive: 0.296%
Cc1cccc(CNC(=O)CCCN2C(=O)CCn3nc(-c4cn(C)c5ccccc45)cc32)c1	inactive: 4.18%
Cc1ccccc1OCC(=O)Nc1ccc2nc(SCC(=O)N(C)c3ccccc3)sc2c1	inactive: -24.9%
CC(C)(C)OC(=O)N1CCC(c2c(C(=O)N3CCN(c4ccc(Cl)cc4)CC3)cnn2-c2ccc(F)cc2F)CC1	inactive: 2.54%
COCCCn1c(=N)c(S(=O)(=O)c2ccccc2)cc2c(=O)n3cc(C)ccc3nc21	inactive: -17.4%
COc1cccc(NC(=O)C2CCCN(c3nnc(-n4c(C)ccc4C)s3)C2)c1 (configuration not stated)	inactive: -13.8%
Cc1ccc(OCC(=O)OCc2cc(=O)n3nc(-c4cccs4)sc3n2)cc1	inactive: -15%
COc1ccccc1CNC(=O)CCCn1nc(C)c2sc3ccccc3c2c1=O	inactive: -0.347%
O=C(c1cc(-c2ccc(Cl)cc2)on1)N(Cc1cccc(F)c1)Cc1ccco1	inactive: -15.2%
Cc1ccc(Cn2c(CNS(=O)(=O)c3ccc(C(C)(C)C)cc3)nc3cccnc32)cc1	inactive: -3.83%
Cn1c(=O)c2nc(SCC(=O)Nc3cc(Cl)cc(Cl)c3)n(C)c2n(C)c1=O	inactive: -22.6%
Cc1nc2sccn2c(=O)c1S(=O)(=O)NCc1ccc(F)cc1	inactive: -8.09%
CCc1ccc(NC(=O)CSc2c(C)cnc3c2c(=O)n(C)c(=O)n3C)cc1	inactive: -7.54%
COc1cc(NC(=O)c2cc(-c3cccs3)on2)c(OC)cc1Cl	inactive: -15.4%
COc1ccc(CNc2nc(-c3ccco3)nn2C(=O)c2ccccc2Cl)cc1	inactive: -13.3%
COc1ccc(Cl)cc1NC(=O)c1cc2ccc3ccc(C)[nH]c3c2n1	inactive: -23.5%
Cn1cc(S(=O)(=O)c2ccc(Cl)cc2)c(=O)c2cc(F)c(N3CCCC3)cc21	inactive: -11.2%
COc1ccc(NC(=O)C(=O)NCCc2ccc(OC)c(OC)c2)c(OC)c1	inactive: -10.4%
O=C(COc1ccccc1Cl)OCc1cc(=O)n2nc(C3CC3)sc2n1	inactive: -6.68%
COc1ccccc1CNc1nc2ccccc2c2nc(-c3cccnc3)nn12	inactive: -16.1%
COc1ccc(CNC(=O)C2CCN(C(=O)c3ccc(-n4ccc5ccccc54)s3)CC2)cc1	inactive: -8.65%
COc1ccc(-c2cc3nc(-c4ccc(Br)cc4)cc(C(F)(F)F)n3n2)cc1	inactive: -13.1%

Compound	activation
COC(=O)c1ccc(NC(=O)CSc2cn(CC(=O)N3CCCCCC3)c3ccccc23)cc1	inactive: -8.39%
COc1ccc(CCNC(=O)c2cccc(-n3c(C)nc4cccnc43)c2)cc1OC	inactive: -16%
COCCCNC(=O)c1cnn(-c2ccccc2Cl)c1C1CCN(C(=O)OC(C)(C)C)CC1	inactive: 2.71%
CCOCN(C(=O)CSc1nc2ccccc2[nH]1)c1c(C)cccc1CC	inactive: 10.7%
CCOC(=O)c1c(C)oc2nc(C)nc(NCc3cccc(OC)c3)c12	inactive: -16.5%
O=C(c1ccccc1)c1ccc2nc(Nc3ccccc3Cl)c3nncn3c2c1	inactive: -10.5%
CCCCN(CC)C(=O)Cn1nc(C)c2c(C)n(-c3ccccc3)nc2c1=O	inactive: -5.72%
COc1ccccc1NC(=O)CCNS(=O)(=O)c1ccc2c(c1)CCCC(=O)N2	inactive: -18.6%
CCn1c(=O)cc(SCC(=O)N2CCN(c3cc(C)ccc3C)CC2)c2ccccc21	inactive: -4.26%
C[C@H](CS)C(=O)N1CCC[C@H]1C(=O)O	inactive: -14.2%
CCOC(=O)c1cc(OC(=O)c2ccc(OC)c(OC)c2)n(-c2ccccc2)n1	inactive: -14.5%
Cc1cccc(Cn2c(SCc3ccc(C(=O)NC4CCCCC4)cc3)nc3cccnc32)c1	inactive: -15%
Cc1ccc(N2CC(C(=O)Nc3ccc(Cl)cc3Cl)CC2=O)cc1 (configuration not stated)	inactive: -10.8%
COc1ccccc1CNC(=O)CCCn1c(=O)c2ccccc2n(Cc2ccccc2F)c1=O	inactive: 6%
COc1ccc(C(=O)Nc2nnc(S(=O)(=O)N3CCOCC3)s2)cc1	inactive: -16.7%
CCc1ccc(-c2csc(-c3cc4cc(Br)ccc4oc3=O)n2)cc1	inactive: 9.37%
Cc1nn(C(C)C(=O)NCc2cccc(F)c2)c(=O)c2c1sc1ccccc12 (configuration not stated)	inactive: -5.72%
O=C(CSc1nnc(-c2ccccc2)o1)N1CCCc2ccccc21	inactive: -12.1%
CN(Cc1cc(Br)cc(Br)c1N)C1CCCCC1	inactive: -14.8%
COc1ccc(C)cc1NC(=O)C(NS(=O)(=O)c1cccc2nsnc12)c1ccccc1 (configuration not stated)	inactive: -13%
Cc1ccc(C)c(N2CCN(C(=O)Cn3nc(Cc4cccnc4)c4ccccc4c3=O)CC2)c1	inactive: -27.7%
CCOC(=O)N1CCc2c(sc3c2c(=O)n(-c2ccc(Cl)cc2)c(=O)n3CC(=O)Nc2ccccc2)C1	inactive: -13.3%
CCN(CC)C(=O)Cn1cc(SCC(=O)Nc2ccc(C)cc2)c2ccccc21	inactive: -24.7%
Cc1cc(C)c2c(C)c(C(=O)N3CCC(c4nc5ccccc5s4)CC3)oc2c1	inactive: -16%
Cn1cnc2c(F)c(Nc3ccc(Br)cc3Cl)c(C(=O)NOCCO)cc21	inactive: -18%

Compound	activation
CCn1c2ccc(F)cc2c2nnc(SCCN3CCCCC3)nc21	inactive: -21.7%
Cc1cccc(CNC(=O)C2CCN(c3nc4ccc(Cl)cc4[nH]3)CC2)c1	inactive: -7.37%
Cc1ccc(C(=O)Nc2ccccc2F)cc1S(=O)(=O)N1CCOCC1	inactive: 1.48%
Cc1ccc(NC(=O)CCC(=O)N2CCOc3ccccc32)c(Cl)c1	inactive: -8.52%
Cc1nc2c3ccccc3nc(NNC(=O)CCC(=O)N3CCN(c4ccccc4F)CC3)n2n1	inactive: -31.6%
COc1cc(C2c3c(oc4ccc(C)cc4c3=O)C(=O)N2Cc2ccc(F)cc2)ccc1O (configuration not stated)	inactive: -13.1%
COc1ccc(C2Nc3ccccc3-c3nnc(SC)nc3O2)cc1C (configuration not stated)	inactive: -7.44%
O=C(Nc1ccc2nc(SCC(=O)N3CCCc4ccccc43)sc2c1)c1ccc(F)cc1	inactive: -8.6%
CCCCN(CC)C(=O)Cn1c(=O)n(-c2ccc(OCC)cc2)c(=O)c2c3c(sc21)CCCC3	inactive: -10.1%
CCC(=O)N1CCCc2cc(S(=O)(=O)Nc3ccc(C)c(C)c3)ccc21	inactive: -43.7%
Cc1c(C(=O)Nc2ccc(Br)cc2F)sc2ncnc(N(C)C3CCCCC3)c12	inactive: -9.33%
Cc1nc2cccnc2n1-c1cccc(C(=O)NCCc2ccc(Cl)cc2)c1	inactive: -16.6%
N#Cc1ccccc1NC(=O)C(=O)NCC(c1ccc2c(c1)OCO2)N1CCN(c2ccccc2)CC1 (configuration not stated)	inactive: -15.6%
COc1ccc(NC(=O)CSc2nc(-c3ccccc3)nc3cc(=O)[nH]n23)cc1	inactive: -14.2%
CCOC(=O)c1cnc2c(OC)cccc2c1Nc1cccc(O)c1	inactive: -0.766%
CSc1ncc(C(=O)Nc2ccccc2C(=O)c2ccccc2)c(C)n1	inactive: -10.5%
CC(C)(C)c1ccc(NC(=O)CSc2nnc3scc(-c4ccccc4)n23)cc1	inactive: -2.33%
O=C(Nc1c(C(=O)c2ccccc2)oc2ccccc12)c1cc(=O)c2ccccc2o1	inactive: 12.3%
Cn1cnc(S(=O)(=O)N2CCC(C(=O)N3CCN(c4cccc(C(F)(F)F)c4)CC3)CC2)c1	inactive: -11.8%
CCOC(=O)c1c(C)[nH]c(C)c1S(=O)(=O)NCC(=O)N(C)c1ccc(C)c(C)c1	inactive: -16.6%
Cc1nn(S(=O)(=O)c2ccc(F)cc2)c(C)c1S(=O)(=O)N1CCC(C)CC1	inactive: -5.72%
COc1ccc(NC(=O)C2CCCN(S(=O)(=O)c3ccc4c(c3)CCCC(=O)N4)C2)c(OC)c1 (configuration not stated)	inactive: -25.9%
